Measurements as given in a collection of fitness landscapes (doi:10.1126/science.1257360).
This is one part of the list.

B1: PhoQ; a variant is named by its letters at X, in order, P23837 (parent)
chain: MKKLLRLFFPLSLRVRFLLATAAVVLVLSLAYGMVALIGYSVSFDKTTFRLLRGESNLFYTLAKWENNKLHVELPENIDKQSPTMTLIYDENGQLLWAQRDVPWLMKMIQPDWLKSNGFHEIEADVNDTSLLLSGDHSIQQQLQEVREDDDDAEMTHSVAVNVYPATSRMPKLTIVVVDTIPVELKSSYMVWSWFIYVLSANLLLVIPLLWVAAWWSLRPIEALAKEVRELEEHNRELLNPATTRELTSLVRNLNRLLKSERERYDKYRTTLTDLTHSLKTPLXXLQXXLRSLRSEKMSVSDAEPVMLEQISRISQQIGYYLHRASMRGGTLLSRELHPVAPLLDNLTSALNKVYQRKGVNISLDISPEISFVGEQNDFVEVMGNVLDNACKYCLEFVEISARQTDEHLYIVVEDDGPGIPLSKREVIFDRGQRVDTLRPGQGVGLAVAREITEQYEGKIVAGESMLGGARMEVIFGRQHSAPKDE

Variants of: B1
Test: enrichment ratio after two sorts for PhoP signalling (ratio (wild type AVST 3.29)); higher = more functional
Conditions: with PhoP (E. coli)

Variant | enrichment ratio
LLLV | ≤ 0.25
SIGW | 11.7
EVCN | ≤ 0.25
SCLQ | 10.8
QMFR | ≤ 0.25
FWPQ | ≤ 0.25
DTRM | ≤ 0.25
IVAY | ≤ 0.25
ATQA | ≤ 0.25
QALT | 2.21
PHVR | ≤ 0.25
HIMS | ≤ 0.25
QHKH | ≤ 0.25
KSNF | ≤ 0.25
QYYW | ≤ 0.25
SWED | ≤ 0.25
TEQN | 34.8
MGSA | ≤ 0.25
SVWP | ≤ 0.25
ICWL | ≤ 0.25
SMPQ | ≤ 0.25
YEVP | ≤ 0.25
LVLG | ≤ 0.25
WGTF | ≤ 0.25
KLDY | ≤ 0.25
NFAP | ≤ 0.25

Variant | enrichment ratio
KCVY | ≤ 0.25
PFKY | ≤ 0.25
LATW | ≤ 0.25
RPLV | ≤ 0.25
NHYN | ≤ 0.25
ADYS | ≤ 0.25
VSAT | ≤ 0.25
NDDP | ≤ 0.25
LVQA | ≤ 0.25
RGST | ≤ 0.25
WDIS | ≤ 0.25
MNHV | ≤ 0.25
NSWD | ≤ 0.25
PVKY | ≤ 0.25
DAGF | ≤ 0.25
RAMS | ≤ 0.25
DCGT | ≤ 0.25
DINN | ≤ 0.25
EAGS | ≤ 0.25
FTDA | ≤ 0.25
KDAQ | ≤ 0.25
HRWI | ≤ 0.25
QNHT | ≤ 0.25
TTDD | ≤ 0.25
ECTR | ≤ 0.25
GQAQ | ≤ 0.25

Variant | enrichment ratio
QDDR | ≤ 0.25
RLAI | ≤ 0.25
INCG | ≤ 0.25
PQHC | ≤ 0.25
SYYD | ≤ 0.25
TCFS | ≤ 0.25
PRRQ | ≤ 0.25
EMHF | ≤ 0.25
MYYE | ≤ 0.25
GTPP | ≤ 0.25
FCCR | ≤ 0.25
VHHW | ≤ 0.25
GMYF | ≤ 0.25
RNYY | ≤ 0.25
ISMW | ≤ 0.25
KMAR | ≤ 0.25
SQWI | ≤ 0.25
QCYA | ≤ 0.25
HNNR | ≤ 0.25
PGKI | ≤ 0.25
PYEI | ≤ 0.25
TIMG | 3.15
FAIC | ≤ 0.25
ENPM | ≤ 0.25
KSRW | ≤ 0.25
HVTP | ≤ 0.25

Variant | enrichment ratio
FNTR | ≤ 0.25
DRQM | ≤ 0.25
YPRH | ≤ 0.25
GHER | ≤ 0.25
TTYI | 6.16
NQGT | ≤ 0.25
ADYL | ≤ 0.25
MAWG | ≤ 0.25
KELM | ≤ 0.25
QCTT | ≤ 0.25
SSNY | 7.35
LRYD | ≤ 0.25
TWFS | ≤ 0.25
FVDS | ≤ 0.25
RDNS | ≤ 0.25
DQLQ | ≤ 0.25
DSDS | ≤ 0.25
NTSS | ≤ 0.25
ARPY | ≤ 0.25
TRRD | ≤ 0.25
LASG | 0.329
QGIN | ≤ 0.25
IDVF | ≤ 0.25
TIHL | 4.04
SIQF | 11.1
WCMW | ≤ 0.25

Variant | enrichment ratio
DFFL | ≤ 0.25
NAEL | ≤ 0.25
KSNS | ≤ 0.25
YKYN | ≤ 0.25
YKNI | ≤ 0.25
QAKF | ≤ 0.25
KNSV | ≤ 0.25
PAMS | ≤ 0.25
GSME | ≤ 0.25
LITC | ≤ 0.25
NVCY | ≤ 0.25
MHYT | ≤ 0.25
AINN | ≤ 0.25
SQKA | ≤ 0.25
DRHD | ≤ 0.25
RYKY | ≤ 0.25
RPEP | ≤ 0.25
KTIT | ≤ 0.25
QHEL | ≤ 0.25
YKST | 0.557
HSNT | ≤ 0.25
YMRI | ≤ 0.25
EKMW | ≤ 0.25
ATYM | ≤ 0.25
ERCS | ≤ 0.25
ECAY | ≤ 0.25

Variant | enrichment ratio
TSKH | ≤ 0.25
NHAV | ≤ 0.25
VCCC | ≤ 0.25
KCHS | ≤ 0.25
GIRF | ≤ 0.25
QRQH | ≤ 0.25
KFDI | ≤ 0.25
AKCL | 3.3
IGRV | ≤ 0.25
IPSK | ≤ 0.25
PNLA | ≤ 0.25
WFGE | ≤ 0.25
MDCT | ≤ 0.25
SDYQ | ≤ 0.25
GFDI | ≤ 0.25
ADIK | ≤ 0.25
NIYP | ≤ 0.25
YMFS | ≤ 0.25
LNDK | ≤ 0.25
TQLM | 22.7
FGLL | 12.6
IKGM | ≤ 0.25
HVKL | ≤ 0.25
